# Measurements: the supplement of paper PMC5919970
# In all, about 2,000 compounds were measured (“fractional viability relative to vehicle”: median about 0.92, lowest 2% from about 0.11 on). Some of the results follow.
# System: TYKNU
# Experiment: fractional viability relative to vehicle; TYKNU is a high-grade serous ovarian cancer line; higher = less growth inhibition
# Details: 72 h, genotype: OPA1 knockout (sgOPA1 #2)
# Method in brief: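 TYKNU control cells or lentiCRISPRv2 knockout derivatives were plated at 500 cells per well in duplicate into drug-stamped 384-well plates holding a ~2100-compound library at 2 or 10 μM. Culture was in RPMI 1640 with 10% FBS at 37 °C in 5% CO2, with 72 h of drug treatment. Viability was measured by Cell Titer Glo luminescence, and the averaged duplicate treatment wells were normalised to duplicate control wells at the same plate position.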
Structure (SMILES),fractional viability (2uM),fractional viability (10uM)
O=C(O)CCNc1cc(N2CCc3ccccc3CC2)nc(-c2ccccn2)n1,0.743,0.872
Cc1ccc(S(=O)(=O)NC(=O)NN2CC3CCCC3C2)cc1 (stereo unspecified) [Gliclazide],1.04,1.08
O=c1c(O)c(-c2cc(O)c(O)c(O)c2)oc2cc(O)cc(O)c12 [Myricetin],0.937,0.976
Cc1cc(Cn2cnc3c2CC(C(=O)O)N(C(=O)C(c2ccccc2)c2ccccc2)C3)ccc1N(C)C (stereo unspecified),0.986,0.95
O=C(Nc1cc(C(F)(F)F)ccc1N1CCCCC1)c1ccncc1,1.1,1.13
Cc1ccc(NC(=O)c2ccc(CN3CCN(C)CC3)cc2)cc1Nc1nc(-c2cccnc2)cs1 [Masitinib (AB1010)],1.5,1.25
COc1nc(C)nc(Cl)c1NC1=NCCN1 [Moxonidine],1.04,0.918
CCCC[C@@H](C=O)NC(=O)[C@H](CC(C)C)NC(=O)OCc1ccccc1 [Calpeptin],0.706,0.926
CCO[C@@H]1OC(=O)C[C@@H]1NC(=O)[C@@H]1CCCN1C(=O)[C@@H](NC(=O)c1ccc(N)c(Cl)c1)C(C)(C)C,0.969,0.919
O=C(CCCN1CC=C(n2c(=O)[nH]c3ccccc32)CC1)c1ccc(F)cc1 [Droperidol],1.03,0.969
COc1ccc2cc(CCC(C)=O)ccc2c1 [Nabumetone],0.955,0.879
COc1ccc(-c2oc3c(CC=C(C)C)c(O[C@@H]4O[C@H](CO)[C@@H](O)[C@H](O)[C@H]4O)cc(O)c3c(=O)c2O[C@@H]2O[C@@H](C)[C@H](O)[C@@H](O)[C@H]2O)cc1 [Icariin],0.965,0.99
CCn1cc(C(=O)O)c(=O)c2ccc(C)nc21 [Nalidixic acid],1.05,0.801
